Measured values published in PubChem BioAssay AID1645882 (National Center for Advancing Translational Sciences (NCATS), 2021).
The whole screen tested about 16,000 compounds, of which about 120 (0.75%) were called active. Roughly 4% stayed inconclusive and do not appear here. The call rests on the fitted dose curve; in most records, active means well fitted inhibition curve with a large enough effect; inconclusive means small, poorly fitted or top-dose-only effect; inactive means no such curve, though single readings can be large or run the other way. Some of the results follow. *1 amine or outer side, *2 acyl side, *3 side chain or, on linkers, in order; H or OH if unused. Where a SMILES comes first, the peptide text is derived from it. Bridges are numbered along the chain shown (N, C = ends). Roman numbers before positions name the chains, in order. [ ]: non-standard residue; d: D form. Actinocin(9to1) = Cc1c2oc3c(C)ccc(C(=O)[*:1])c3nc-2c(C(=O)[*:2])c(N)c1=O; NMeV = CN[C@H](C(=O)O)C(C)C; Sar = CNCC(=O)O

target: Rap guanine nucleotide exchange factor 3 (Homo sapiens) (UniProt O95398); assay: Validation qHTS for antagonist of cAMP-regulated guanine nucleotide exchange factor 3 (EPAC1); details: EPAC1 Rap1B-BODIPY-GDP exchange, fluorescence; series mostly up to 150 µM; activity change, negative = inhibition: at the top concentration;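 further: plate controls were DMSO for no effect and ATA control for full effect; nearly all actives have a fitted effect of over 75% in size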
Chain of UniProt O95398 (O95398 whole entry, looked up): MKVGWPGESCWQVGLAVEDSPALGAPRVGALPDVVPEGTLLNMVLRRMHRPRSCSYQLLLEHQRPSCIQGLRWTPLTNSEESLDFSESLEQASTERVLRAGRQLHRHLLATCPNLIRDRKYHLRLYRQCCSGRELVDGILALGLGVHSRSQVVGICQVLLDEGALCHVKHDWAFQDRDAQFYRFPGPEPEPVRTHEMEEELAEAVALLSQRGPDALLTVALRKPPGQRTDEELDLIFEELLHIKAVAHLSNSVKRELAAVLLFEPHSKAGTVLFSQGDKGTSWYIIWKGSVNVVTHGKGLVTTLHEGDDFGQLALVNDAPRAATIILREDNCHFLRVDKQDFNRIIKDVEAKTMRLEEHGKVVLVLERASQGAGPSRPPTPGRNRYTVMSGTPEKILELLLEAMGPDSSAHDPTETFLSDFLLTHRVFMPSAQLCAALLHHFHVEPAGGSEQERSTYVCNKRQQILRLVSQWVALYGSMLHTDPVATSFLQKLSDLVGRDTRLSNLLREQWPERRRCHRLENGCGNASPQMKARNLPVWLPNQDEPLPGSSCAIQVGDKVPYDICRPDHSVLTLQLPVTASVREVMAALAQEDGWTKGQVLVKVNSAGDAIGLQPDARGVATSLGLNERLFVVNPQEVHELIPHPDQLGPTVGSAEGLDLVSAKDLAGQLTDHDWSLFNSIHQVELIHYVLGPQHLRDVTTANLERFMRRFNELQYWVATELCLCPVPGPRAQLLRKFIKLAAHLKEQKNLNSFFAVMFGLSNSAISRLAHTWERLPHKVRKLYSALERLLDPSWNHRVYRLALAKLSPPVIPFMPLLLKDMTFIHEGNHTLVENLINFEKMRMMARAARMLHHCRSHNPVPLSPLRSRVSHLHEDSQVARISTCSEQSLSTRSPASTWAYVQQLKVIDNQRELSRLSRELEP
Method in brief: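 Nucleotide exchange followed as fluorescence loss when BODIPY-GDP leaves Rap1B (480 nm excitation, 540 nm emission), read at 5 min intervals over 30 min. Reaction: 100 nM EPAC1, 250 nM RAP1B-BODIPY-GDP, 50 uM GDP; ATA and DMSO define normalization.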

Activity change, negative = inhibition, inactive:
CC(C)CCCC(C)C1CCC2C3CC=C4CC(O)CCC4(C)C3CCC12C (stereo unspecified) 7.19%
Cc1c2oc3c(C)ccc(C(=O)N[C@@H]4C(=O)N[C@H](C(C)C)C(=O)N5CCC[C@H]5C(=O)N(C)CC(=O)N(C)[C@@H](C(C)C)C(=O)O[C@@H]4C)c3nc-2c(C(=O)N[C@@H]2C(=O)N[C@H](C(C)C)C(=O)N3CCC[C@H]3C(=O)N(C)CC(=O)N(C)[C@@H](C(C)C)C(=O)O[C@@H]2C)c(N)c1=O (I: T[dV]P[Sar][NMeV] / II: T[dV]P[Sar][NMeV]; ester I:1-I:C, II:1-II:C; linker I:N-II:N via Actinocin(9to1)) 0.796%
O=C1C[C@H]2C=CCc3cccc(c32)CN1Cc1ccc(F)cc1 -10.8%
COc1ccc(Oc2ncc3nc(-c4cccs4)c(=O)n(C)c3n2)cc1 7%
N#CCCn1c(=O)c(-c2cccc(C#N)c2)nc2cnc(N3CCOCC3)nc21 34.7%
O=C([C@@H]1CC=C[C@@H]2CCN(C3CC3)C(=O)[C@@H]21)N1CCOCC1 1.53%
CC1C(=O)OC2CC34C5CC(C(C)(C)C)C36C(OC(=O)C6O)OC4(C(=O)O5)C21O (stereo unspecified) 10.4%
CC(C)Cc1ccc([C@@H](C)C(=O)NS(C)(=O)=O)cc1 13.5%
COc1ccc2c(c1)c(CC(=O)OCC(=O)O)c(C)n2C(=O)c1ccc(Cl)cc1
O=C1CCN(CCc2ccccc2)CCN1CCOc1ccccc1 -16.4%
C=CC[n+]1cccc2cccc(O)c21 16.9%
CC(=NCc1ccccc1)c1ccccc1O 7.58%
O=C(C[n+]1ccccc1Cl)c1ccc(Br)cc1 -24.3%
NC(=O)c1cc[n+](CC2=C(C(=O)[O-])N3C(=O)[C@@H](NC(=O)Cc4cccs4)[C@H]3SC2)cc1 24.9% [at 75.8 µM]
COc1cc(=O)n2c(c1C(=O)NCc1ccco1)CCN(Cc1ccc3ccccc3c1)CC2 8.2%
Cc1nccn1CC1CCc2c(c3ccccc3n2C)C1=O (stereo unspecified)
CN1CCN(c2ncc3nc(-c4ccccc4)c(=O)n(Cc4ccc(F)cc4)c3n2)CC1 6.45%
O=C1C(O)=C(O)C(=O)C(O)=C1O -12.4%
O[C@H](CCCN1CCN(c2ncc(F)cn2)CC1)c1ccc(F)cc1 3.82%
CCCCN(CC)CCOc1cccc2ccccc12 18.4%
c1ccc(CCc2nnc3n2CCN(Cc2ccc4ccccc4n2)CC3)cc1 12.6%
CCN(CC)CCOc1ccc(-c2nc3cc(Cl)ccc3s2)cc1 2.85%
CC(C)NC(=O)[C@@H]1C[C@@H](Sc2ccccn2)CN1C1CCN(C)CC1 5.45%
CC1(C)[C@@H]2CC[C@@]1(C)[C@H](OC(=O)CSC#N)C2 2.14%
O=C(c1cc(C(F)(F)F)cc(C(F)(F)F)c1)N1CCC[C@@]2(CCN(Cc3ccccc3)C2)C1 -16.9%
CCCCCCCCCCCCN1C/C(=C\C(=O)OCC)c2cc(C(F)(F)F)ccc2S1(=O)=O -18.6%
CC(=O)NC[C@H]1CN(c2ccc(N3CCOCC3)c(F)c2)C(=O)O1 -3.13%
Cc1cnc(CNc2cc(-c3ccccc3Cl)ncn2)cn1 11.7%
CSc1ccccc1C(=O)NCC1Cc2cc(F)cc(-c3cnccn3)c2O1 (stereo unspecified) 10.3%
NC(N)=[N+]1CCc2ccccc2C1 -0.338% [at 75.8 µM]
Cc1noc(C)c1-c1cncnc1NCc1cccnc1 8.46%
O=C1CCC[C@@H]2C[C@@]3(C[C@@H]4CCN1[C@H]24)Nc1ccccc1NC3=NC1CCCCC1 16.4%
CC[C@H](C)C(=O)O[C@H]1C[C@H](O)C=C2C=C[C@H](C)[C@H](CC[C@@H](O)C[C@@H](O)CC(=O)O)[C@H]21 21.3%
Cc1cccn2c(=O)c(-c3nnn[nH]3)cnc12 16.9%
COc1cc2nc(N(C)C)c(CNCc3cccc4ccccc34)cc2c(OC)c1OC 28.5%
COc1ccc2[nH]cc(CCNc3ncnc4ccc(-c5ccccc5C#N)cc34)c2c1 6.37%
O=C1CC2(CCCC2)CC(=O)N1CCCCNCC1COc2ccccc2O1 (stereo unspecified) -4.02%
CC1=C(C(=O)O)N2C(=O)[C@@H](NC(=O)[C@H](N)c3ccccc3)[C@H]2SC1 -0.463%
Cn1cccc1C(=O)N1CCC2(CCCN(c3cccc(-c4ccccc4)c3)C2)CC1 0.86%
COc1cccc(C(=O)NCC2Cc3cccc(-c4nc(C)cnc4C)c3O2)c1OC (stereo unspecified) 13.7%
O=S(=O)(c1cccc2c(Cl)cccc12)N1CCCNCC1
CCOCCn1c(N2CCCN(C)CC2)nc2ccccc21 13.1%
COCC(=O)N1CCC2(CCCN(c3cccc(-c4ccccc4)c3)C2)CC1 -4.04%
COc1ccc(OC)c(-c2cc(Cl)c3c(c2)CC(CNC(=O)c2coc4c2C(=O)CCC4)O3)c1 (stereo unspecified) 10.4%
Cc1ccccc1CN1[C@H]2CCCC[C@@H]2OCCS1(=O)=O 6.74%
COCCn1c(=O)c(C)nc2cnc(Oc3ccc(OC)cc3)nc21 -3.46%
COCCN1CCN(C(=O)c2cnn(-c3nccc(-c4ccccc4OC)n3)c2-c2ccco2)CC1 22.3%
O=C(c1cnccn1)N1CCC2(CC1)CN(c1ccncc1)C2 15.2%
CCNC(=O)CCC(N)C(=O)O (stereo unspecified) -5.58%
Cn1c(=O)c(CCc2ccccc2)nc2cnc(OCc3ccccc3)nc21 12.3%
COc1cc(=O)n2c(c1C(=O)N(C)Cc1nonc1C)CCN(Cc1ccc(C)cc1C)CC2 21.9%
O=C(c1cc(C(F)(F)F)cc(C(F)(F)F)c1)N1CCC2(CCN(Cc3nccs3)CC2)CC1 1.07%
N[C@H](C(=O)O)c1cccc(O)c1
Nc1nc(Nc2ccccc2)nc2c1ncn2[C@@H]1O[C@H](CO)[C@@H](O)[C@H]1O 11.6% [at 75.8 µM]
OC1(c2cccnc2)CCN(Cc2ccc3c(c2)CN(Cc2cc(F)cc(F)c2)CCO3)CC1 17.2%
COc1cc(CCNC(C)=O)c(C(=O)/C=C/c2cccc(OC)c2OC)cc1OC -6.38%
Cc1cc(O)cc(O)c1C(=O)O 8.07%
CO[C@H]1[C@H](NC(=O)c2cccs2)c2ccccc2C12CCN(Cc1cccn1-c1ccccn1)CC2 2.04%
CC(C)(C)NCC(O)COc1cccc2c1CC(O)C(O)C2 (stereo unspecified) 13.8%
COC(=O)[C@@H]1CCCN1Cc1ccc2c(c1)CN(Cc1cccn1-c1ccccn1)CCO2 13.5%
c1cncc(CNc2ncnc3ccc(-c4cccnc4)cc23)c1 -13.1%
